Assay results as given in PubChem BioAssay AID624417 (National Center for Advancing Translational Sciences (NCATS), 2012).
“And” between values parts separate entries of the source, which are not always exact repeats. Equal values may be shown once. Screen size: about 410,000 compounds; about 6,400 (1.6%) were called active. Inconclusive means that the source gave no clear call. Such entries were picked first, then a sample of the others. Calls follow the shape of the dose curve; as a rule, active = well fitted inhibition curve with a large enough effect; inconclusive = small, poorly fitted or top-dose-only effect; inactive = no such curve, though single readings can be large or run the other way. Where the call is inconclusive, the potency comes from a doubtful curve fit.

Biological target: Glucagon-like peptide 1 receptor (Homo sapiens) (UniProt P43220)
UniProt P43220, sequence (P43220 whole entry, looked up): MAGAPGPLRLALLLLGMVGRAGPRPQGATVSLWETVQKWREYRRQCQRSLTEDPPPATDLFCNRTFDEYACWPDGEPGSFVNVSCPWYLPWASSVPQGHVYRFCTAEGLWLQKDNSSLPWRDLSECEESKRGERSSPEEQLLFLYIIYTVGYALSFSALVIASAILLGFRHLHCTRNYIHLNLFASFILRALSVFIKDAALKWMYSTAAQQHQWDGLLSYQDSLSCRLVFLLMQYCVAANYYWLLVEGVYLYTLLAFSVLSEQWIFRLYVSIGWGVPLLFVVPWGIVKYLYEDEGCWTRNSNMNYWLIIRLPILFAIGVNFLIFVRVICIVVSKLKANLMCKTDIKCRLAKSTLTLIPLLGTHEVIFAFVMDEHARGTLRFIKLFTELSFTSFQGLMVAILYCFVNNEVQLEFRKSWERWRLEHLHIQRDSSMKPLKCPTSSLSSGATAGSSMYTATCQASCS
Test: qHTS of GLP-1 Receptor Inverse Agonists (Inhibition Mode); also: nearly all actives have a fitted effect of over 55% in size
Conditions: HEK293 GLP-1R CRE-luciferase, luminescence, 24 h, GLP-1R form is constitutively active; activity change, negative = inhibition: at 38.3 µM (top of the series) unless noted
How it was run: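 Luminescence readout: a drop in cAMP-driven luciferase signal flags inverse agonism at a constitutively active GLP-1R stably expressed in HEK293. Compound exposure lasted 24 hr at 37 deg C, 5% CO2.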
% is scaled to controls: 0 for no effect and ±100 for the full control effect; potency is read from the fitted curve at half-maximal effect; tags tell the direction and shape of the fitted curve.

Row | Compound | Potency | activity change, negative = inhibition
1 | CCCc1nn(C)c2c(=O)[nH]c(-c3ccccc3OCC)nc12 | inactive | 
2 | COc1cc(Br)cc(CNc2ccc(F)c([N+](=O)[O-])c2)c1O | inconclusive: 14.1 µM [inhibitor, single point] | 
3 | CC(C)C[C@H]1CN=C(Nc2ccccc2)N1CCc1cccc(F)c1 | inconclusive: 12.6 µM [inhibitor, partial curve, poor fit] | 
4 | CCN(CC)CCCNC(=O)c1[nH]c2ccccc2c1Sc1ccc(Cl)cc1 | inconclusive: 14.1 µM [inhibitor, partial curve, poor fit] | 
5 | O=C(NCCc1ccccc1)c1ccc2c(c1)N(Cc1ccc(F)cc1)C(=O)c1ccccc1S2 | inconclusive: 28.2 µM [inhibitor, single point] | 
6 | Cc1ccc(-n2nc(C)c(Sc3ccccc3[N+](=O)[O-])c2N)cc1 | inconclusive: 28.2 µM [inhibitor, single point] | 
7 | Cc1nc2c(c(C)nn2-c2ccccc2)c(C)c1CCC(=O)NCCCOC(C)C | inconclusive: 28.2 µM [inhibitor, single point] | 
8 | CC1(C)CN(c2ccccc2)C(=O)[C@H]1CC(=O)Nc1ccccc1 | inactive | 
9 | COc1ccc(C(NC(=O)C2CCN(CCOc3ccc(Cl)cc3)CC2)c2cccs2)cc1 (stereo unspecified) | inconclusive: 11.2 µM [inhibitor, partial curve, poor fit] | 
10 | O=C1C2C3C=CC(C3)C2C(=O)N1c1ccc(-c2nc3ccccc3o2)cc1 (stereo unspecified) | inactive | 
11 | COc1ccc(CCNC(=O)C2COc3ccccc3C2)cc1OC (stereo unspecified) | inactive | 
12 | Cc1cccc(C)c1NC1=C(Cl)C(=O)OC1OC(C)C (stereo unspecified) | inconclusive: 4.47 µM [inhibitor, full curve] | 
13 | CC(N)C12CC3CC(C1)CC(C(C)N)(C3)C2 (stereo unspecified) | inconclusive: 6.31 µM [inhibitor, partial curve, poor fit] | 
14 | CC(C)NC(=O)c1ccc(COc2ccc(C(C)(C)C)cc2)o1 | inconclusive: 6.31 µM [inhibitor, partial curve, poor fit] | 
15 | O=[N+]([O-])c1cccc(-c2ccc(/C=N/Nc3nc(N4CCCCC4)nc(N4CCCCC4)n3)o2)c1 | inconclusive: 10 µM [inhibitor, partial curve, poor fit] | 
16 | O=C(O)c1cc(S(=O)(=O)N(Cc2ccccc2)c2ccc(Cl)cc2)ccc1Cl | inconclusive: 7.08 µM [inhibitor, partial curve, poor fit] | 
17 | Cc1cc(-c2ccc(S(=O)(=O)Nc3ccc(Cl)cc3C)cc2)on1 | inconclusive: 6.31 µM [inhibitor, partial curve, poor fit] | 
18 | O=C(Nc1ccc(Cl)cc1)N1CCC(c2ccccc2)C1 (stereo unspecified) | inconclusive: 28.2 µM [inhibitor, single point] and inconclusive: 11.2 µM [inhibitor, partial curve] | 
19 | O=C(NCc1ccccc1)c1csc2c1CCCCC2 | inconclusive: 10 µM [inhibitor, partial curve, poor fit] | 
20 | c1ccc2c(Nc3ccc4c(c3)OCCO4)c3c(nc2c1)CCCC3 | inconclusive: 1 µM [inhibitor, full curve, poor fit] | 
21 | O=C(Nc1ccc(Br)cc1)c1cccc(N2C(=O)C3C4C=CC(C4)C3C2=O)c1 (stereo unspecified) | inconclusive: 3.55 µM [inhibitor, partial curve, poor fit] | 

Row | Compound | Potency | activity change, negative = inhibition
22 | CC1Cc2ccccc2N1C(=O)CSc1ncc(-c2ccc(F)cc2)n1C (stereo unspecified) | inconclusive: 28.2 µM [inhibitor, single point] | 
23 | c1ccc2c(c1)CC(N1CCCCC1)c1ccccc1N2 (stereo unspecified) | inactive | 
24 | Cc1ccc(-c2noc(CSc3nnc(Cc4cccs4)n3-c3ccccc3)n2)cc1 | inconclusive: 25.1 µM [inhibitor, partial curve, poor fit] | 
25 | COc1ccc(C(=O)NC2(C(F)(F)F)NC(=O)N(CCCc3ccccc3)C2=O)c(OC)c1OC (stereo unspecified) | inconclusive: 11.2 µM [inhibitor, partial curve, poor fit] | 
26 | COc1ccc(CCNC(=O)c2cccc(C(=O)NCCc3ccc(OC)cc3)n2)cc1 | inconclusive: 7.94 µM [inhibitor, partial curve, poor fit] | 
27 | CCCC[C@@H]1C=C(C(=O)O)[C@H](c2ccc(Cl)c(Cl)c2)N1S(=O)(=O)c1ccc(C)cc1 | inconclusive: 12.6 µM [inhibitor, partial curve, poor fit] | 
28 | CCN1CCc2c(sc(NC(=O)c3ccc(S(=O)(=O)N4CCOCC4)cc3)c2C(=O)OC)C1 | inconclusive: 28.2 µM [inhibitor, single point] | 
29 | COc1cccc(Sc2cc(N3CCOCC3)nc(-c3ccccc3)n2)c1 | inconclusive: 10 µM [inhibitor, partial curve] | 
30 | O=C(CC(c1ccccc1)c1ccccc1)Nc1ccc2c(c1)OCCO2 | inconclusive: 10 µM [inhibitor, partial curve, poor fit] | 
31 | O=S(=O)(Nc1nc2ccccc2nc1N1CCN(c2ccccc2)CC1)c1ccc(F)cc1 | inconclusive: 15.8 µM [inhibitor, partial curve, poor fit] | 
32 | COc1ccc(/C=N/NC(=O)c2ccc[nH]2)cc1 | inconclusive: 22.4 µM [inhibitor, single point] | 
33 | Cn1cc(S(=O)(=O)N2CCCCC2)cc1C(=O)Nc1cccc(C#N)c1 | inactive | 
34 | CCOC(=O)c1cccc2c1N[C@@H](c1ccc(F)cc1)[C@H]1CC=C[C@@H]21 | inactive | 
35 | Cn1c(=O)c2cc(NC(=O)NCc3ccc(F)cc3)ccc2n1C/C=C/c1ccccc1 | inconclusive: 3.16 µM [inhibitor, full curve] | 
36 | Cc1ccc(C(=O)OCC(=O)NNC(=O)COc2ccc(Cl)cc2)c(O)c1 | inconclusive: 11.2 µM [inhibitor, single point] | 
37 | CCN1C(=O)[C@H]2[C@@H](c3ccc(C(F)(F)F)cc3)N[C@]3(CCCN(Cc4ccc(F)cc4)C3=O)[C@H]2C1=O | inconclusive: 6.31 µM [inhibitor, partial curve, poor fit] | 
38 | CCOC(=O)C1=C(c2ccccc2)NC(=S)NC1c1cccc([N+](=O)[O-])c1 (stereo unspecified) | inactive | 
39 | COc1ccc(S(=O)(=O)N2CCCCC2c2cc(C(=O)NCc3ccc(F)cc3)no2)cc1 (stereo unspecified) | inconclusive: 14.1 µM [inhibitor, single point] | 
40 | COc1ccc(NC(=O)c2cnc(N3CCCCC3)c3ccccc23)cc1Cl | inconclusive: 10 µM [inhibitor, partial curve] | 
41 | CC(C)C(=O)NC(NC(=S)Nc1cccc2cccnc12)C(Cl)(Cl)Cl (stereo unspecified) | inconclusive: 11.2 µM [inhibitor, partial curve, poor fit] | 
42 | CCC(C)NC(=O)c1sc2nc(C)c(C(=O)Nc3ccc(C)cc3C)c(-c3ccccc3Cl)c2c1N (stereo unspecified) | inconclusive: 14.1 µM [inhibitor, partial curve, poor fit] | 

Row | Compound | Potency | activity change, negative = inhibition
43 | CCN(CC)c1ccc(-c2nc(-c3ccco3)no2)cc1[N+](=O)[O-] | inactive | 
44 | C#CC[N+](C)(C)CCCCCCCC | inconclusive: 2.82 µM [inhibitor, partial curve] | 
45 | COc1cccc(/C=N/NC(=O)c2cc3cc([N+](=O)[O-])ccc3s2)c1O | inconclusive: 0.501 µM [inhibitor, full curve, poor fit] | 
46 | CCCCC1CCC(C(=O)N2CC(=O)Nc3ccc(Cl)cc3C2c2ccc(F)cc2)CC1 (stereo unspecified) | inconclusive: 28.2 µM [inhibitor, single point] | 
47 | Cc1ccc(Cl)cc1NC(=S)N/N=C/c1cccc2ccccc12 | inconclusive: 3.98 µM [inhibitor, full curve, poor fit] | 
48 | CC1=C(C(=O)N(C(C)C)C(C)C)CC(CC(=O)NC2CCCC2)C(=O)N1Cc1ccccc1 (stereo unspecified) | inactive | 
49 | CC(C)NS(=O)(=O)c1ccc(NC(=O)NC2CCCCC2)cc1 | inconclusive: 7.94 µM [inhibitor, partial curve, poor fit] | 
50 | CC(C)c1ccc(S(=O)(=O)N2CCN(C(=O)c3ccc(N4CCCC4)c([N+](=O)[O-])c3)CC2)cc1 | inconclusive: 12.6 µM [inhibitor, single point] | 
51 | COc1ccccc1CNc1nccn(-c2ccccc2)c1=O | inactive | 
52 | CCOc1ncccc1C(=O)OCC(=O)NC1CCCCCC1 | inactive | 
53 | NCC(c1ccc(Cl)cc1Cl)c1c[nH]c2ccccc12 (stereo unspecified) | inconclusive: 2.51 µM [inhibitor, full curve, poor fit] | 
54 | O=C1C2=C(Nc3ccccc3SC2c2ccco2)c2ccccc21 (stereo unspecified) | inconclusive: 4.47 µM [inhibitor, partial curve, poor fit] | 
55 | O=C(N/N=C/C(Cl)=C\c1ccccc1)c1cnccn1 | inactive | 
56 | Cn1c(CN2CCN(CCO)CC2)c(C#N)c2ccccc21 | inconclusive: 7.94 µM [inhibitor, partial curve, poor fit] | 
57 | COC(=O)c1ccc(C23CC4(C2)[C@H](CN(Cc2cccnc2)[C@@H]4c2ccccc2)C3c2ccc(Cl)nc2)cc1 (stereo partly specified) | inconclusive: 28.2 µM [inhibitor, single point] | 
58 | c1ccc2c(c1)OCCOCCOCCOCCOc1ccccc1OCCOCCOCCO2 | inconclusive: 28.2 µM [inhibitor, single point] | 
59 | CCC(Oc1ccc(Br)cc1Cl)C(=O)Nc1nnc(C2CC2)s1 (stereo unspecified) | inconclusive: 12.6 µM [inhibitor, partial curve] | 
60 | Cc1ccc2c(c1)c(-c1csc(N)n1)c(C)n2C |  | inconclusive: -57.3% [inhibitor]
61 | C/C(=N\NC(=O)Cc1ccc(Cl)cc1)c1ccccc1O | inconclusive: 15.8 µM [inhibitor, partial curve, poor fit] | 
